Assay results: PubChem BioAssay (Tox21)
Inconclusive results, whose numbers are uncertain, are shown with a selection of clear calls. Entries that show only a call come without a potency. For part of these data: Potencies of inconclusive entries are doubtful fits and often do not repeat. Where a structure was tested more than once in an assay, its records may differ in their call. Activity calls are given as the source filed them. Unless noted, calls come from the whole dose curve; as a rule, active = well fitted curve in the direction sought with a large enough effect in the repeat runs; inconclusive = weak or mixed curves; inactive = no such curve, though single readings can be large; an effect the other way counts as inactive or inconclusive.
Potency is the fitted concentration of half-maximal effect; tags give direction and shape of the fitted curve or compound fluorescence and quenching.

Assay: qHTS assay to identify small molecule agonists of the hypoxia (HIF-1) signaling pathway (AID 1224846; active = well fitted activation curve with a large enough effect in the signal ratio in the repeat runs, not every such curve was filed as active; inconclusive = weak or mixed curves; the % refers to the signal ratio)
Details: HRE-bla ME-180 cells, beta-lactamase ratio, 17 h; series mostly up to 76.8 µM
Procedure, shortened: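 Compounds added to ME-180 cells carrying hypoxia-response-element beta-lactamase reporter (0.5% dialyzed FBS, 5 h preplating), 17 h at 37C; agonist activity detected by CCF4-AM B/G FRET read-out.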
In the case of `COc1cccc(N(C)C(=S)Oc2ccc3c(c2)CCCC3)n1`, the Potency was inconclusive: 13.4 µM [falling, full curve, poor fit]. In the case of `CC(C)CCCCOC(=O)c1ccccc1C(=O)OCCCCC(C)C`, the Potency was “inactive”. With `CC(Cc1ccccc1)(NC(=O)CN)c1ccccc1` (configuration not stated) the Potency was “inactive”.

Assay: qHTS RealTime-Glo MT Cell Viability Assay in HepG2 cells - 24 hour (AID 1224867); note: nearly all actives have a fitted effect of over 50% in size
Details: RealTime-Glo luminescence; series mostly up to 76.8 µM
Procedure, shortened: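 Real-time, nonlytic viability: 600 HepG2 cells/well mixed with NanoLuc enzyme plus prosubstrate; 5 h settle, compound (DMSO) added by pintool; luminescence monitored over 40 h at 37 C.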
For `NCCN`, the Potency was active: 38.9 µM. In the case of `CC[C@H](NC(C)C)[C@H](O)c1ccc(O)c2[nH]c(=O)ccc12`, the Potency was “inactive”. With `CCC[C@H](N[C@@H](C)C(=O)N1[C@H](C(=O)O)C[C@@H]2CCCC[C@@H]21)C(=O)OCC` the Potency was “inactive”.

Assay: qHTS RealTime-Glo MT Cell Viability Assay in HEK293 cells - 32 hour (AID 1224868); note: nearly all actives have a fitted effect of over 50% in size
Details: RealTime-Glo luminescence; series mostly up to 76.8 µM
Procedure, shortened: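 Cells + reagent dispensed (600 cells/well, HEK293) → 5 h at 37 C/5% CO2 → 23 nL compound in DMSO pinned → 40 h at 37 C → luminescence read at 0, 8, 16, 24, 32, 40 h.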
For `O=[N+]([O-])c1ccc(Oc2ccc([N+](=O)[O-])cc2)cc1`, the Potency was inconclusive: 28.2 µM [cytotoxic, partial curve]. With `O=S(=O)(O)C(F)(F)F` the Potency was “inactive”. With `CC(C)=CCC/C(C)=C\C#N` the Potency was “inactive”. With `O=C1c2ccccc2CCc2ccccc21` the Potency was inconclusive: 56.1 µM [cytotoxic, partial curve, poor fit]. For `CC[C@H](NC(C)C)[C@H](O)c1ccc(O)c2[nH]c(=O)ccc12`, the Potency was “inactive”. In the case of `O=c1[nH][nH]c2ccccc12`, the Potency was inconclusive: 25 µM [cytotoxic, partial curve].
